# Data reported in PubChem BioAssay (NCI).
# Where “and” joins values, the source holds several entries; their conditions need not be identical. Equal values may be shown once.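 Method: 48-hour compound exposure of cells in 96-well plates, five concentrations, linear interpolation of endpoints. Here, GI50 denotes the concentration required for 50% inhibition of growth. The concentration for full growth arrest is given as TGI.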
# System: NCI-H322M lung
# Assay: inhibition of tumour cell growth, NCI panel, 48 h
SMILES,GI50,TGI
CCOc1cccc(/C=N/NC(=O)C(=O)Nc2cccc(C(F)(F)F)c2)c1O,1.04 µM,17 µM
COc1ccccc1/C=C/C(=O)c1ccccc1,19 µM,38.3 µM
COc1cc2c(=O)n(CCN)c3c4cc5c(cc4ccc3c2cc1OC)OCO5,1.06 µM,2.6 µM
NC(=O)c1cc2c3ccccc3ccn2c1-c1ccccc1,0.556 µM,27.2 µM
COc1ccc(-c2oc3c(OC)c(OC)c(OC)c(OC)c3c(=O)c2OC)cc1OC,,> 100 µM
CN1CC[C@]2(C)c3ccc(O)cc3CC3CCCC1C32C (stereo partly specified),,> 100 µM
CS(=O)(=O)Nc1ccc2c(c1)N(S(C)(=O)=O)CC2CCl (stereo unspecified),,> 100 µM
Cc1cc(Cl)ccc1Nc1nc(C(F)(F)F)ccc1C(=O)N/N=C/c1ccc([N+](=O)[O-])cc1,1.61 µM,7.71 µM
C=C1C(OC2O[C@@H]3O[C@@]4(C)CC[C@H]5[C@H](C)CC[C@@H](C2=C)[C@@]35O4)O[C@@H]2O[C@@]3(C)CC[C@H]4[C@H](C)CC[C@@H]1[C@@]24O3 (stereo partly specified),,> 50 µM
COC(=O)C1C(C(=O)OC)C2(OC(c3ccc(Cl)cc3)=CC2=O)C12OC(c1ccc(Cl)cc1)=CC2=O (stereo unspecified),,> 100 µM
CCn1c2ccc(O)cc2c2c(C)c3c[n+](C)ccc3c(C)c21,2.67 µM,84.2 µM
CCC1=C(C(C)=O)[C@@H]2CCCCC[C@@H](C(=O)OC)C2C1=O (stereo partly specified),,> 100 µM
O=C(c1ccncc1)n1nc(-c2ccccc2)c(N=Nc2ccccc2[N+](=O)[O-])c1-c1ccccc1,,77.9 µM
Cc1ccc(C(=O)N/N=C(\N=Nc2ccccc2)c2ccc(N(C)C)cc2)cc1,,> 100 µM
CC(C)N1CC2CC(CN(C(=O)c3ccccc3)C2)C1,,> 100 µM
COc1ccc(Cn2c3c(cc(OS(=O)(=O)C(F)(F)F)c2=O)Cc2ccccc2-3)cc1,6.18 µM,50 µM and > 100 µM
O=S(=O)(c1cc(Cl)ccc1Cl)n1ccnc1,,> 100 µM
CCOC(=O)c1s/c(=N\Nc2nc3ccccc3cc2C2OCCO2)n(Cc2ccccc2)c1C,,> 100 µM
CC1=C(C(=O)Nc2cccc(Cl)c2)C(c2ccccc2F)C(C(=O)Nc2cccc(Cl)c2)=C(C)N1,,37.2 µM
CN(C)CCNC(=O)c1cc(Cl)cc2ccc(-c3ccccc3)nc12,,14.7 µM
c1cncc(CC2(c3cc4ccccc4[nH]3)OCCO2)c1,,> 100 µM
CCn1c(-c2nonc2N)nc2c(C#CC(C)(C)O)nc(OCCNC)cc21,9.51 µM,> 25 µM
CCC(CO)Nc1nc(NCc2ccccc2)c2ncn(C(C)C)c2n1 (stereo unspecified),,> 100 µM

SMILES,GI50,TGI
CC(C)C(=O)C(C)(C)CCc1ccccn1,,> 100 µM
O=C1C=CC(=O)c2c(O)c(N3CCC[C@H]3CO)c(Cl)c(O)c21,,> 10 µM
CC(C)c1cccc(C(C)C)c1NC(=O)/C(CC(=O)CC(c1ccccc1)c1c(O)c2ccccc2oc1=O)=N/O (stereo unspecified),,> 100 µM
Cc1[nH]nc(C(=O)n2nc(N)c3ccccc32)c1[N+](=O)[O-],> 100 µM,> 100 µM
COC(=O)[C@@H]1CCCCC[C@H]2C(CO)=C(C)C(=O)C12 (stereo partly specified),,> 100 µM
O=S(=O)(O)c1ccc(N=Nc2ccc(N=Nc3ccc(/C=C/c4ccc(N=[N+]([O-])c5ccc(/C=C/c6ccc(N=Nc7ccc(N=Nc8ccc(S(=O)(=O)O)cc8)cc7)cc6S(=O)(=O)O)c(S(=O)(=O)O)c5)cc4S(=O)(=O)O)c(S(=O)(=O)O)c3)cc2)cc1,,> 100 µM
COc1ccc(Nc2nc(N)c(C(=O)c3c[nH]c4ccccc34)s2)cc1,,> 100 µM
Nc1ccccc1C#C/C=C\C#Cc1ccccc1[N+](=O)[O-],24.9 µM,74.4 µM
CCC(O)(Cc1ccc(OC)cc1)c1ccc(OC)cc1 (stereo unspecified),,> 100 µM
CNCCn1c(=O)c2cc(OC)c(OC)cc2c2ccc3cc4c(cc3c21)OCO4,0.169 µM,1.4 µM
COc1cc(CC(C)NC(C)=O)cc(OC)c1 (stereo unspecified),,> 100 µM
CCc1c(CNc2ccc(C(=O)NC(CC(=O)O)C(=O)O)cc2)ccc2nc(N)nc(N)c12 (stereo unspecified),0.108 µM,> 1000 µM
NCCCCNCCCNC(=O)c1nc(-c2nc(CCN)sc2Cl)sc1Cl,,> 100 µM
CC(=O)OCC(OC(C)=O)C(OC(C)=O)C(OC(C)=O)C(=O)CNn1c(-c2ccccc2Cl)nc2ccccc2c1=O (stereo unspecified),,> 100 µM
Cc1cc(C)nc(NS(=O)(=O)c2ccc(Nc3c4ccccc4nc4c(C(=O)N5CCN(CCOS(C)(=O)=O)CC5)cccc34)cc2)n1,,> 100 µM
O=C1C=CC=C/C1=C1\N=C(c2ccccc2OCC(=O)c2ccccc2)SS1,,> 100 µM
CCCCOc1ccc(OCCCCCCCCCC[N+](C)(C)C)cc1,,21.3 µM
Cc1cc2c(cc1C)N(C(=O)CCl)CCN2C(=O)CCl,1.88 µM,3.6 µM
O=C1NC2CCCCC2N=C1CC(=O)c1ccc(Br)cc1 (stereo unspecified),,> 100 µM
O=C(CCc1cc(O)cc(O)c1)NCCCNC(=O)CCc1cc(O)cc(O)c1,,> 100 µM
O=C(/C=C/C(=O)N1CCCC1)N1CCCC1,,> 100 µM
COC(=O)C(=O)C(C(=O)C(=O)Nc1cccc(C(C)=O)c1)c1nc2ccccc2[nH]c1=O (stereo unspecified),,> 100 µM
Cc1c(CN2CCN(C)CC2)c(CN2CCN(C)CC2)c(C)n1-c1ccc(Cl)cc1,,> 100 µM

SMILES,GI50,TGI
CN1C(=O)N(C)C2C1NN=c1s/c(=C\c3ccc(F)cc3)c(=O)n12 (stereo unspecified),5.59 µM,> 100 µM
COC(=O)c1ccccc1NC(=O)C(=O)NNC(=O)c1ccncc1,,> 100 µM
O=C1N=C2SC(=S)NC(=S)N2NC12c1ccccc1-c1ccccc12,,> 10 µM
COc1cc2ncnc(Nc3ccc(F)c(Cl)c3)c2cc1NC(=O)/C=C/CN1CCCCC1,< 0.01 µM and 0.00449 µM,1.94 µM and 2.63 µM
COC(=O)C1CCc2sc3ncnc(Nc4cn[nH]c4C(=O)Nc4ccc(CN5CCN(C)CC5)cc4)c3c21 (stereo unspecified),0.483 µM,> 100 µM
CC(C)C(CC(=O)OCC(CO)OC(=O)CC(C(C)C)C(C)C)C(C)C (stereo unspecified),,27.8 µM
O=[N+]([O-])c1cnn(C2=CNc3ccccc3N=C2)c1,,> 100 µM
CCCCC1=C(C(=O)N2CCOCC2)C2(OCCO2)C1=O,,> 100 µM
COC(=O)C1=C(C(=O)OC)SC(=CC#CC=C2SC(C(=O)OC)=C(C(=O)OC)S2)S1,,33.4 µM
N#CCCN(CCC#N)c1ccc(C(Sc2ccccc2)C(NC(=O)c2cc([N+](=O)[O-])ccc2Cl)C(=O)Sc2ccccc2)cc1 (stereo unspecified),4.05 µM,20.3 µM
CN(C)CC1CCC/C1=N\O (stereo unspecified),,> 100 µM
COc1ccc(/C=C\c2cc(OC)c(O[Si](C)(C)C(C)(C)C)c(OC)c2)cc1,,> 100 µM
CCOC(=O)C1(C#N)C(c2ccccc2)CC(O)(c2ccc(Cl)cc2)C(C(=O)c2ccc(Cl)cc2)C1c1ccccc1 (stereo unspecified),,> 100 µM
Fc1cc2[nH]ncc2c2c3c(c(-c4cn[nH]c4C(F)(F)F)nc12)C1CCC3C1 (stereo unspecified),1.4 µM,4.69 µM
O=C1c2cc(Cl)ccc2-c2c1c1ccc([N+](=O)[O-])cc1c(=O)n2CCCBr,25.9 µM,> 100 µM
NC(=O)c1csc(C2(O)COC(CO)C2O)n1 (stereo unspecified),,> 100 µM
O=C(O)c1cccc2cccc(-c3cccc4cccc(C(=O)O)c34)c12,,> 100 µM
CC1C(NNc2ccccc2)Oc2cc3c(cc2C1c1ccccc1O)OCO3 (stereo unspecified),,19.7 µM
COc1cc(C(=O)Nc2cc3c(cc2Oc2cc(C)cc(C)c2)C(=O)N(C)[C@@H](CC(=O)N(C)O)C(=O)N3)c(Br)c(OC)c1OC,< 0.00333 µM,0.0148 µM
Cc1cc(S(=O)(=O)NC#N)c(S/C(=N\Nc2ccc([N+](=O)[O-])cc2)c2ccc(Cl)cc2)cc1Cl,22.5 µM,> 100 µM
C=C1OC(c2ccccc2NC)=NC12CCCCC2,,> 100 µM
Cn1c(=O)c(-c2ccccc2)c(O)c2ccccc21,,> 100 µM
c1ccc2c(c1)Sc1nccc3ccnc-2c13,,> 100 µM

SMILES,GI50,TGI
COc1ccc(-c2c3c(n(C4OC(CO)C(O)C(O)C4O)c(=S)c2C#N)CCC3)cc1 (stereo unspecified),,> 100 µM
OC1(c2ccccc2)OC(C#Cc2ccccc2)(c2ccccc2)c2ccccc21 (stereo unspecified),,3.52 µM
COC(=O)/C(=N\NC(C)(C)C)C(C(=O)C(=O)Nc1cc(C)ccc1C)c1nc2ccccc2[nH]c1=O (stereo unspecified),,> 100 µM
COc1ccc(-c2ccc(-c3ccc(C(=N)N)cn3)o2)cc1,6 µM,19.3 µM
Cn1c(=O)c2c(nc3n(Cc4ccccc4)c(=O)c(NCCCBr)cn23)n(C)c1=O,,> 100 µM
COC1C2C=CC(C2)[C@H]1[N+](=O)[O-] (stereo partly specified),,> 100 µM
COc1ccc2nc(/C(N)=C\C#N)ccc2c1,,> 100 µM
C=C1C(=O)O[C@H]2[C@H]1CC/C(COC(=O)c1cc3cc(Cl)ccc3[nH]1)=C\CC[C@@]1(C)O[C@@H]21,4 µM,16.4 µM
N#C/C(C(=O)Nc1ccc(Cl)cc1)=C(/N)N1CCCC1,,> 100 µM
C/C=C(/C)C(=O)OC1CC(C)[C@H]2CC(=O)C(C)=C2CC1C(C)(C)OC(C)=O (stereo partly specified),,> 100 µM
CC1=NN(c2nc(N)nc(-c3sccc3N)n2)C(C)(C)C1,,> 100 µM
CC[C@H](Nc1nc(C)nc(N)c1C#N)c1nc2cccc(NCc3ccc(C(=O)NO)cc3)c2c(=O)n1-c1ccccc1,1.93 µM,6.83 µM
Nc1ccc(C(=O)CC(N)C(=O)O)cc1O (stereo unspecified),,> 100 µM
CCC[n+]1cc2cc(OC)c(OC)cc2c2c1-c1cc3c(cc1C2)OCO3,10.6 µM,39.6 µM
CC[PH+](CC)CC.O=COC1OC([S-])C(OC=O)C(OC=O)C1OC=O.[Au+] (stereo unspecified),1.7 µM,3.07 µM
C=C(C)OCOCCOC,,> 100 µM
COc1ccc2[nH]c(O)c(C(=Nc3ccc(N(C)C(=O)CN4CCN(C)CC4)cc3)c3ccccc3)c2c1,1.91 µM,9.12 µM
O=c1nc2c(c(-c3ccc(Br)cc3)[nH]1)COC/C2=C\c1ccc(Br)cc1,,> 50 µM
CCCCCCCCCCCCCCCCCC1=NCCN1C(=O)OCCO,3.32 µM,13.1 µM
C/C=C/C=C/C=C/C=C/C(=O)O,,> 100 µM
Cc1cccc(C)c1NC(=O)C1C(=O)N(c2c(C)cccc2C)C(=O)/C1=N\NC(N)=S (stereo unspecified),,> 100 µM
CCOC(=O)/C=C/C1=C(c2cccs2)c2ccccc2CC1,38.9 µM,> 100 µM
Cc1ccc2c(c1)-c1c(C#N)c(N)nc(-c3ccc(Cl)cc3)c1CCS2(=O)=O,,> 100 µM
